In article PMC5892938 one finds binding signal (log2 fold change) data, which are given here for 74 sequences.

The list shows a part of the results. At the low end of the ranking the order means little.

In this test the target is GST-SBP-SLBP (stem-loop binding protein) (UniProt Q14493). The experiment in a line: targeted RNA Bind-n-Seq.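 Note: DESeq read counts versus GST-SBP nonspecific binding control pulldown.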 The settings on record: RBNS binding buffer: 25 mM Tris pH 7.5, 150 mM KCl, 3 mM MgCl2, 0.1% Tween, 0.5 mg/mL BSA, 1 mM DTT; 27 nM protein, 750 pM RNA pool; temperature not stated; high values mean tight binding.
Turning to “GGUCACGUCUCAAUCAACUCAACAGAGGGGGGGAAAACCCCUUUGCCCUCCAAUUCAACAGCUCGCAGUCAAG”, the binding signal (log2 fold change) is -0.0237. As for “GGUCACGUCUCAAUCAACUCAAUUUCCAGGGAAAGCCCUGGUUUUCUCAACAGCUCGCAGUCAAG”, the figure is -0.152; as for “GGUCACGUCUCAAUCAACUCUUUUUCCAGGGAAAGCCCUGGCAAUUUCAACAGCUCGCAGUCAAG”, -0.187. As for “GGUCACGUCUCAAUCAACUCAGAAGAGGGGGGGAAAACCCCUUUACCCUCAAUAUCAACAGCUCGCAGUCAAG”, the figure is -0.434. As for “GGUCACGUCUCAAUCAACUCUUCGUCCAGGGAAAACCCUGGUUAUCUCAACAGCUCGCAGUCAAG”, the figure is 0.104; as for “GGUCACGUCUCAAUCAACUCAAUCUCAGGAGUUUUCUCCUGCUAAGUCAACAGCUCGCAGUCAAG”, 0.147; as for “GGUCACGUCUCAAUCAACUCAUUUCCCAGGGAAAUCCCUGGUAUUUUCAACAGCUCGCAGUCAAG”, 0.142. “GGUCACGUCUCAAUCAACUCUUAAGAGGGGGGGAAAACCCCUUUACCCUCAUCUUCAACAGCUCGCAGUCAAG”: the binding signal (log2 fold change) turned out to be 0.0525. “GGUCACGUCUCAAUCAACUCCCCGGAGGGGGGGAAAACCCCUUUACCCUCAAAAUCAACAGCUCGCAGUCAAG”: the binding signal (log2 fold change) was -0.105. The value for “GGUCACGUCUCAAUCAACUCAUCCCCAGGAGUUUUCUCCUGUAAAUUCAACAGCUCGCAGUCAAG” was 0.213. As for “GGUCACGUCUCAAUCAACUCAUUUUCAGGAGUUUGCUCCUGUUUACUCAACAGCUCGCAGUCAAG”, the figure is 0.12; as for “GGUCACGUCUCAAUCAACUCUUUCUCCAGGGAAAACCCUGGUUUUCUCAACAGCUCGCAGUCAAG”, -0.224; as for “GGUCACGUCUCAAUCAACUCAACUCCCAGGGAAAGCCCUGGCAUACUCAACAGCUCGCAGUCAAG”, -0.313. The value for “GGUCACGUCUCAAUCAACUCUCAAGAGGGGGGGAAAACCCCUUUACCCUCCUAAUCAACAGCUCGCAGUCAAG” was -0.215; that for “GGUCACGUCUCAAUCAACUCUUUCCCCAGGGAAAUCCCUGGUAAUGUCAACAGCUCGCAGUCAAG” was 0.176.

“GGUCACGUCUCAAUCAACUCUACUCCAGGAGUUUGCUCCUGCAUUUUCAACAGCUCGCAGUCAAG”: the binding signal (log2 fold change) amounted to 0.014. As for “GGUCACGUCUCAAUCAACUCUAUCUCAGGAGUUUCCUCCUGUAUUCUCAACAGCUCGCAGUCAAG”, the figure is 0.0212; as for “GGUCACGUCUCAAUCAACUCAAUCUCCAGGGAAAGCCCUGGCAUAGUCAACAGCUCGCAGUCAAG”, 0.0684. For the sequence “GGUCACGUCUCAAUCAACUCUUCUCCCAGGGAAAUCCCUGGUUAUGUCAACAGCUCGCAGUCAAG”, the binding signal (log2 fold change) was -0.0391. Turning to “GGUCACGUCUCAAUCAACUCCAAAGAGGGGGGGAAAACCCCUUUACCCUCCAAUUCAACAGCUCGCAGUCAAG”, the binding signal (log2 fold change) was -0.268.

On to “GGUCACGUCUCAAUCAACUCCAUAGAGGGGGGGAAAACCCCUUUACCCUCGUCCUCAACAGCUCGCAGUCAAG”, for which the binding signal (log2 fold change) amounted to 0.2. As for “GGUCACGUCUCAAUCAACUCAAUCUCAGGAGUUUUCUCCUGUAUAUUCAACAGCUCGCAGUCAAG”, the figure is 0.144; as for “GGUCACGUCUCAAUCAACUCCCUCGAGGGGGGGAAAACCCCUUUACCCUCUUUUUCAACAGCUCGCAGUCAAG”, -0.134; as for “GGUCACGUCUCAAUCAACUCUUUCUCCAGGGAAAACCCUGGCUUACUCAACAGCUCGCAGUCAAG”, -0.234. As for “GGUCACGUCUCAAUCAACUCAACUCCCAGGGAAAACCCUGGCUUAUUCAACAGCUCGCAGUCAAG”, the figure is -0.0554; as for “GGUCACGUCUCAAUCAACUCAGUUUCCAGGGAAAACCCUGGCUUAUUCAACAGCUCGCAGUCAAG”, 0.221. With “GGUCACGUCUCAAUCAACUCAAUAGAGGGGGGGAAAACCCCUUUACCCUCAAACUCAACAGCUCGCAGUCAAG”, the binding signal (log2 fold change) was 0.319. The value for “GGUCACGUCUCAAUCAACUCAUCCCCCAGGGAAACCCCUGGCAAUUUCAACAGCUCGCAGUCAAG” was -0.148. The value for “GGUCACGUCUCAAUCAACUCAAUCCCCAGGGAAAUCCCUGGUAUUCUCAACAGCUCGCAGUCAAG” was -0.0545. With “GGUCACGUCUCAAUCAACUCAACUUCAGGAGUUUACUCCUGCAUACUCAACAGCUCGCAGUCAAG”, the binding signal (log2 fold change) turned out to be 0.0462.

Consider “GGUCACGUCUCAAUCAACUCAUCUUCCAGGGAAAGCCCUGGCAUUUUCAACAGCUCGCAGUCAAG”, for which the binding signal (log2 fold change) was -0.24. As for “GGUCACGUCUCAAUCAACUCUUCUCCCAGGGAAACCCCUGGCUAAUUCAACAGCUCGCAGUCAAG”, the figure is -0.24; as for “GGUCACGUCUCAAUCAACUCUCAAGAGGGGGGGAAAACCCCUUUACCCUCCAAUUCAACAGCUCGCAGUCAAG”, -0.0066.

Take “GGUCACGUCUCAAUCAACUCUUUCCCCAGGGAAAACCCUGGUUAUUUCAACAGCUCGCAGUCAAG”: the binding signal (log2 fold change) is -0.222. The value for “GGUCACGUCUCAAUCAACUCAAUUCCCAGGGAAAGCCCUGGUUUUUUCAACAGCUCGCAGUCAAG” was -0.298.

As to “GGUCACGUCUCAAUCAACUCAGGUCCAGGAGUUUUCUCCUGCAAAUUCAACAGCUCGCAGUCAAG”, the binding signal (log2 fold change) is -0.0771. Take “GGUCACGUCUCAAUCAACUCCCACGAGGGGGGGAAAACCCCUUUACCCUCCAAAUCAACAGCUCGCAGUCAAG”: the binding signal (log2 fold change) was -0.0397. As for “GGUCACGUCUCAAUCAACUCAUCGUCCAGGGAAAUCCCUGGUUUUUUCAACAGCUCGCAGUCAAG”, the figure is -0.0179.

Turning to “GGUCACGUCUCAAUCAACUCAAUCGAGGGGGGGAAAACCCCUUUGCCCUCAACAUCAACAGCUCGCAGUCAAG”, the binding signal (log2 fold change) was -0.0608. As for “GGUCACGUCUCAAUCAACUCACACGAGGGGGGGAAAACCCCUUUGCCCUCACAUUCAACAGCUCGCAGUCAAG”, the figure is -0.0607; as for “GGUCACGUCUCAAUCAACUCUUCGUCAGGAGUUUACUCCUGCAAUUUCAACAGCUCGCAGUCAAG”, 0.261; as for “GGUCACGUCUCAAUCAACUCUACUUCCAGGGAAAUCCCUGGCUUACUCAACAGCUCGCAGUCAAG”, -0.0499. As for “GGUCACGUCUCAAUCAACUCAUCCCCAGGAGUUUUCUCCUGUAGUCUCAACAGCUCGCAGUCAAG”, the figure is 0.234; as for “GGUCACGUCUCAAUCAACUCUAUCCCAGGAGUUUUCUCCUGCAAACUCAACAGCUCGCAGUCAAG”, 0.00195; as for “GGUCACGUCUCAAUCAACUCUUCUCCAGGAGUUUUCUCCUGCAAUUUCAACAGCUCGCAGUCAAG”, 0.00657. Take “GGUCACGUCUCAAUCAACUCUUCCUCCAGGGAAACCCCUGGUUAUCUCAACAGCUCGCAGUCAAG”: the binding signal (log2 fold change) was 0.158. As for “GGUCACGUCUCAAUCAACUCCCACGAGGGGGGGAAAACCCCUUUACCCUCACCAUCAACAGCUCGCAGUCAAG”, the figure is -0.0344; as for “GGUCACGUCUCAAUCAACUCAUUCCCAGGAGUUUGCUCCUGCAAUUUCAACAGCUCGCAGUCAAG”, 0.0804; as for “GGUCACGUCUCAAUCAACUCAUUUUCCAGGGAAAGCCCUGGCAAUCUCAACAGCUCGCAGUCAAG”, -0.00336. The value for “GGUCACGUCUCAAUCAACUCUAUUCCCAGGGAAAACCCUGGUUAUUUCAACAGCUCGCAGUCAAG” was 0.0306; that for “GGUCACGUCUCAAUCAACUCAUUCCCCAGGGAAAGCCCUGGCAUUUUCAACAGCUCGCAGUCAAG” was 0.0455. The value for “GGUCACGUCUCAAUCAACUCUUCCUCCAGGGAAAUCCCUGGCUUAUUCAACAGCUCGCAGUCAAG” was -0.196; that for “GGUCACGUCUCAAUCAACUCUUCUUCAGGAGUUUUCUCCUGUAUUCUCAACAGCUCGCAGUCAAG” was -0.0332; that for “GGUCACGUCUCAAUCAACUCAGUUUCAGGAGUUUGCUCCUGCUUUUUCAACAGCUCGCAGUCAAG” was 0.122. Regarding “GGUCACGUCUCAAUCAACUCUAUUUCAGGAGUUUCCUCCUGCAAUCUCAACAGCUCGCAGUCAAG”, the binding signal (log2 fold change) was 0.204. The value for “GGUCACGUCUCAAUCAACUCUACUUCCAGGGAAACCCCUGGCUUUUUCAACAGCUCGCAGUCAAG” was 0.2.

Consider “GGUCACGUCUCAAUCAACUCUUCCCCAGGAGUUUCCUCCUGUAUUUUCAACAGCUCGCAGUCAAG”, for which the binding signal (log2 fold change) is -0.0432. As for “GGUCACGUCUCAAUCAACUCUUCCUCAGGAGUUUUCUCCUGCUAUGUCAACAGCUCGCAGUCAAG”, the figure is 0.151; as for “GGUCACGUCUCAAUCAACUCUUUUUCAGGAGUUUACUCCUGUUUUUUCAACAGCUCGCAGUCAAG”, -0.0162; as for “GGUCACGUCUCAAUCAACUCAUCUUCCAGGGAAAGCCCUGGUUUAUUCAACAGCUCGCAGUCAAG”, -0.055.

With “GGUCACGUCUCAAUCAACUCUUUUCCAGGAGUUUCCUCCUGUAUAUUCAACAGCUCGCAGUCAAG”, the binding signal (log2 fold change) was -0.0999.

For the sequence “GGUCACGUCUCAAUCAACUCCCAAGAGGGGGGGAAAACCCCUUUACCCUCCUUAUCAACAGCUCGCAGUCAAG”, the binding signal (log2 fold change) is -0.347.

On to “GGUCACGUCUCAAUCAACUCAUCUUCCAGGGAAAUCCCUGGCUUACUCAACAGCUCGCAGUCAAG”, for which the binding signal (log2 fold change) is -0.0632. As for “GGUCACGUCUCAAUCAACUCUAUUUCCAGGGAAAGCCCUGGCAUAUUCAACAGCUCGCAGUCAAG”, the figure is 0.1; as for “GGUCACGUCUCAAUCAACUCUUCUUCCAGGGAAAUCCCUGGCGUUUUCAACAGCUCGCAGUCAAG”, -0.0645; as for “GGUCACGUCUCAAUCAACUCUUUCGCAGGAGUUUACUCCUGGUUAUUCAACAGCUCGCAGUCAAG”, -0.173. As for “GGUCACGUCUCAAUCAACUCAAGUCCCAGGGAAAACCCUGGCUAAUUCAACAGCUCGCAGUCAAG”, the figure is 0.127; as for “GGUCACGUCUCAAUCAACUCUCACGAGGGGGGGAAAACCCCUUUACCCUCAACUUCAACAGCUCGCAGUCAAG”, 0.363. As for “GGUCACGUCUCAAUCAACUCAUUCCCAGGAGUUUUCUCCUGUAAUUUCAACAGCUCGCAGUCAAG”, the figure is 0.0677; as for “GGUCACGUCUCAAUCAACUCAUCUUCCAGGGAAAUCCCUGGUUUACUCAACAGCUCGCAGUCAAG”, -0.0538; as for “GGUCACGUCUCAAUCAACUCACUAGAGGGGGGGAAAACCCCUUUACCCUCAACCUCAACAGCUCGCAGUCAAG”, 0.103. For “GGUCACGUCUCAAUCAACUCCUCAGAGGGGGGGAAAACCCCUUUACCCUCGUUCUCAACAGCUCGCAGUCAAG”, the binding signal (log2 fold change) is -0.283. As for “GGUCACGUCUCAAUCAACUCAUCUUCAGGAGUUUUCUCCUGCUAUUUCAACAGCUCGCAGUCAAG”, the figure is 0.0467; as for “GGUCACGUCUCAAUCAACUCUUUUUCAGGAGUUUUCUCCUGUUAUUUCAACAGCUCGCAGUCAAG”, -0.167.
